The other results are listed elsewhere or left out. The list includes weakly bound sequences.

In the experiment the target is MaxL homodimer (UniProt P61244). Put plainly: universal protein-binding microarray (PBM). The note with it: PBS-based mixture, 10 nM His-tagged protein dimer, 2% milk, 200 ng/uL BSA, 50 ng/uL salmon testes DNA, 0.02% TX-100; detection with Alexa 488 anti-His …; high values mean tight binding; most listed sequences are background and not binding sites; double strand, one strand shown.
UniProt P61244, sequence (P61244 whole entry): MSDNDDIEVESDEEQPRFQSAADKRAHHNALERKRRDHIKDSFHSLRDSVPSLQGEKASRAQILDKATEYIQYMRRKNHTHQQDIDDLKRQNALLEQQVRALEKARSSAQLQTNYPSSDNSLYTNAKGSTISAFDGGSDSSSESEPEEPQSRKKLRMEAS
Turning to ACTTTTCC, the binding signal (normalized occupancy) was found to be 0.0753.

In the case of AATCAGCG, the binding signal (normalized occupancy) came to 0.0745.

Take CCACCGGG: the binding signal (normalized occupancy) stood at 0.0769.

Regarding AGCGAGAG, the binding signal (normalized occupancy) was determined as 0.0672.

Regarding CTTCGAAC, the binding signal (normalized occupancy) was determined as 0.0686.

For ACTATAGA, the binding signal (normalized occupancy) came out at 0.0769.

As to AGCTTGAA, the binding signal (normalized occupancy) was found to be 0.0674.

Turning to GAGGTATC, the binding signal (normalized occupancy) turned out to be 0.0783.

Take GTCAGGGA: the binding signal (normalized occupancy) stood at 0.0758.

With CTATAAAC, the binding signal (normalized occupancy) is 0.0789.

On to ATAGTCTC, for which the binding signal (normalized occupancy) was 0.0756.

Regarding AGTACCTC, the binding signal (normalized occupancy) was found to be 0.0751.

Consider TCAGGTAA, for which the binding signal (normalized occupancy) is 0.0795.

Regarding AGTAGGAC, the binding signal (normalized occupancy) came out at 0.0695.

For the sequence TAGGCTGA, the binding signal (normalized occupancy) came out at 0.0736.

As to AGCTTGCA, the binding signal (normalized occupancy) came to 0.0706.

Take GGCTAGGA: the binding signal (normalized occupancy) is 0.0751.

As for CGCATTGA, the binding signal (normalized occupancy) was determined as 0.0827.

On to ACTTAGTG, for which the binding signal (normalized occupancy) was 0.0757.

Take AGCCGGCT: the binding signal (normalized occupancy) turned out to be 0.0646.

For the sequence GACTGCAA, the binding signal (normalized occupancy) worked out at 0.0713.

Turning to TCAAACAA, the binding signal (normalized occupancy) came to 0.0729.

Turning to ATTATGGA, the binding signal (normalized occupancy) was 0.0819.

For the sequence ATCAGGGA, the binding signal (normalized occupancy) turned out to be 0.0797.

Consider CAGGGAAA, for which the binding signal (normalized occupancy) is 0.0787.

Consider CATACCGC, for which the binding signal (normalized occupancy) stood at 0.0785.

For the sequence ACACAGAC, the binding signal (normalized occupancy) came out at 0.066.

As to AAGGAAAT, the binding signal (normalized occupancy) turned out to be 0.0758.

On to GCAAACAA, for which the binding signal (normalized occupancy) came to 0.0743.

Take AGGCGTCG: the binding signal (normalized occupancy) is 0.0733.

Take GCACACCA: the binding signal (normalized occupancy) turned out to be 0.0833.

Regarding TGGTCACA, the binding signal (normalized occupancy) was found to be 0.0774.

As for ATGCCATA, the binding signal (normalized occupancy) worked out at 0.0896.

With AAAGTATG, the binding signal (normalized occupancy) stood at 0.0812.

Turning to TCAGGACA, the binding signal (normalized occupancy) is 0.0701.

Consider AAGTTATA, for which the binding signal (normalized occupancy) was 0.0801.

For the sequence ACCTAGAT, the binding signal (normalized occupancy) stood at 0.0775.

As for ATCACAAT, the binding signal (normalized occupancy) came to 0.0804.

Consider GGACAGCA, for which the binding signal (normalized occupancy) was determined as 0.0752.

As to GCCAACCA, the binding signal (normalized occupancy) was determined as 0.0739.

On to GCTCACAA, for which the binding signal (normalized occupancy) was 0.0762.

Turning to ATCTACAT, the binding signal (normalized occupancy) is 0.0805.

Consider ACGTTTTG, for which the binding signal (normalized occupancy) is 0.0854.

Consider CATTGTTC, for which the binding signal (normalized occupancy) came to 0.0759.

In the case of ATCAGCGC, the binding signal (normalized occupancy) stood at 0.0713.

Take CGACGCGC: the binding signal (normalized occupancy) turned out to be 0.0703.

Regarding CGAGCTAA, the binding signal (normalized occupancy) is 0.0651.

AAGATTGC: the binding signal (normalized occupancy) was 0.0705.

For GCCCTGGA, the binding signal (normalized occupancy) is 0.0665.

As for GGAGGTAA, the binding signal (normalized occupancy) amounted to 0.0778.

As for CGGGCCTA, the binding signal (normalized occupancy) came out at 0.0655.

Regarding CGTCATTA, the binding signal (normalized occupancy) was 0.0727.

Take AAAGATAC: the binding signal (normalized occupancy) was found to be 0.076.

In the case of GTACGCAC, the binding signal (normalized occupancy) is 0.0758.

Take ACTATTAG: the binding signal (normalized occupancy) was found to be 0.0773.

Take ATCGTAAA: the binding signal (normalized occupancy) was 0.0783.

GCAAGAAC: the binding signal (normalized occupancy) turned out to be 0.0722.

Regarding ATGAAAAC, the binding signal (normalized occupancy) came to 0.0752.

Take CGCCTTGA: the binding signal (normalized occupancy) came out at 0.0753.

Consider ACTAGCAT, for which the binding signal (normalized occupancy) is 0.0816.

With AAACTAAA, the binding signal (normalized occupancy) came out at 0.0726.

Turning to AGATAGCT, the binding signal (normalized occupancy) was determined as 0.0718.

For AGTATACA, the binding signal (normalized occupancy) is 0.077.

Consider AGACTGCC, for which the binding signal (normalized occupancy) was found to be 0.0681.

Regarding CGTTCAAA, the binding signal (normalized occupancy) was 0.074.

Consider AGGAACTA, for which the binding signal (normalized occupancy) worked out at 0.0735.

Consider ATGCGCAT, for which the binding signal (normalized occupancy) came out at 0.102.

Take AGAATTGA: the binding signal (normalized occupancy) stood at 0.0733.

On to CTGCATTA, for which the binding signal (normalized occupancy) was 0.0722.

GTCTATTA: the binding signal (normalized occupancy) worked out at 0.0784.

For the sequence CCGCCCCA, the binding signal (normalized occupancy) turned out to be 0.0757.

For AAGGTCCT, the binding signal (normalized occupancy) worked out at 0.0739.

Consider ACGACGCT, for which the binding signal (normalized occupancy) is 0.0756.

As to TAGCAAGA, the binding signal (normalized occupancy) stood at 0.0771.

On to AACACGGC, for which the binding signal (normalized occupancy) stood at 0.069.

With GGTGCATA, the binding signal (normalized occupancy) was found to be 0.0776.

Turning to ATATTTCG, the binding signal (normalized occupancy) turned out to be 0.072.

In the case of CTAGCAAA, the binding signal (normalized occupancy) was 0.0723.

Regarding ATACTCCC, the binding signal (normalized occupancy) is 0.0785.

As to ACGATACT, the binding signal (normalized occupancy) stood at 0.0795.

TCCTAGAA: the binding signal (normalized occupancy) was found to be 0.0733.

Take CGTTTTCA: the binding signal (normalized occupancy) turned out to be 0.0841.

Regarding TACATGAA, the binding signal (normalized occupancy) is 0.0793.

Turning to CAATTTAC, the binding signal (normalized occupancy) was 0.0751.

Regarding CCACCTGC, the binding signal (normalized occupancy) was found to be 0.0984.

Regarding AGTGGCCC, the binding signal (normalized occupancy) amounted to 0.0692.

Take ATGGTTTC: the binding signal (normalized occupancy) was 0.0765.

On to GCGGAAAC, for which the binding signal (normalized occupancy) was 0.0684.

Turning to GTCGAAAA, the binding signal (normalized occupancy) was 0.0717.

As to CTGAGTGC, the binding signal (normalized occupancy) worked out at 0.0731.

Consider ATACGTAG, for which the binding signal (normalized occupancy) was determined as 0.0785.

Turning to GGCTAGAC, the binding signal (normalized occupancy) was 0.0679.

As for ATACTAGA, the binding signal (normalized occupancy) worked out at 0.0749.

Turning to AACACAGG, the binding signal (normalized occupancy) amounted to 0.0791.

As to TAAAGCTA, the binding signal (normalized occupancy) worked out at 0.0691.

As to CCCTAGGC, the binding signal (normalized occupancy) turned out to be 0.0666.

As for AAGCTGAG, the binding signal (normalized occupancy) stood at 0.0726.

As to TAGGGTAA, the binding signal (normalized occupancy) amounted to 0.0767.

As to AACGATGA, the binding signal (normalized occupancy) is 0.0771.

Turning to ACGTTGAT, the binding signal (normalized occupancy) is 0.0875.

For GGCAAACC, the binding signal (normalized occupancy) was determined as 0.0696.

Turning to AGTGGCTC, the binding signal (normalized occupancy) is 0.0728.

Take AAAGCTGT: the binding signal (normalized occupancy) was found to be 0.067.

For the sequence CCACCCCA, the binding signal (normalized occupancy) came to 0.0887.

In the case of CAGACGTA, the binding signal (normalized occupancy) amounted to 0.0724.

Turning to GCGATTCC, the binding signal (normalized occupancy) came out at 0.0814.

AGCGACAC: the binding signal (normalized occupancy) worked out at 0.0794.

CAATCGCA: the binding signal (normalized occupancy) turned out to be 0.0778.

As for TCCGAAGA, the binding signal (normalized occupancy) turned out to be 0.0666.

As for GCGGCGAA, the binding signal (normalized occupancy) was determined as 0.0666.

Take TCTACACA: the binding signal (normalized occupancy) came out at 0.0874.

Take CCATTGTA: the binding signal (normalized occupancy) came out at 0.0816.

For CTAACGTC, the binding signal (normalized occupancy) is 0.0737.

As to ACTAATAT, the binding signal (normalized occupancy) turned out to be 0.0834.

As to CAAGTCCA, the binding signal (normalized occupancy) is 0.0739.

CAAGGTAG: the binding signal (normalized occupancy) was found to be 0.0815.

Consider CCTGCCAG, for which the binding signal (normalized occupancy) worked out at 0.0714.

For the sequence CGCCCGCG, the binding signal (normalized occupancy) turned out to be 0.0691.

For AGTCCGAC, the binding signal (normalized occupancy) was 0.0731.

Turning to ACGGCGCG, the binding signal (normalized occupancy) was 0.0694.

Turning to CCTTTTCC, the binding signal (normalized occupancy) came out at 0.0757.

As for ACACTCTG, the binding signal (normalized occupancy) turned out to be 0.0741.

Consider ACTGCCCT, for which the binding signal (normalized occupancy) turned out to be 0.0694.

As to CAAGGACG, the binding signal (normalized occupancy) came out at 0.0685.

For the sequence GCCAGTGA, the binding signal (normalized occupancy) came out at 0.0707.

On to GTCGATCA, for which the binding signal (normalized occupancy) turned out to be 0.0788.

Regarding AGTGACAA, the binding signal (normalized occupancy) came out at 0.0746.

As for GCTCGCAC, the binding signal (normalized occupancy) stood at 0.0715.

In the case of AGCACGTG, the binding signal (normalized occupancy) came out at 1.

In the case of CGGGCTTA, the binding signal (normalized occupancy) was found to be 0.0706.

In the case of ATTCGTCG, the binding signal (normalized occupancy) was 0.0701.

On to AACGTTAT, for which the binding signal (normalized occupancy) turned out to be 0.0845.

As to GAAGTCGA, the binding signal (normalized occupancy) worked out at 0.0711.

For the sequence AATTGCGT, the binding signal (normalized occupancy) is 0.074.

In the case of AGTTGGGC, the binding signal (normalized occupancy) worked out at 0.0684.

Consider AGAACATC, for which the binding signal (normalized occupancy) came out at 0.0752.

For CAATTCTA, the binding signal (normalized occupancy) amounted to 0.0752.

As to CCCCACGA, the binding signal (normalized occupancy) came to 0.0848.

With AAAAGTCT, the binding signal (normalized occupancy) amounted to 0.0708.

As for TACGGACA, the binding signal (normalized occupancy) was determined as 0.0789.

Turning to CTTGTAGA, the binding signal (normalized occupancy) is 0.0769.

Regarding CACTTCAA, the binding signal (normalized occupancy) was 0.0737.

For AATTTCTG, the binding signal (normalized occupancy) turned out to be 0.071.

For CGTAAGCC, the binding signal (normalized occupancy) is 0.0712.

Regarding AAATGCCC, the binding signal (normalized occupancy) came to 0.0782.

On to CGCAGAAA, for which the binding signal (normalized occupancy) amounted to 0.0699.

Regarding AAACTATG, the binding signal (normalized occupancy) turned out to be 0.0755.

Regarding ATCGTATA, the binding signal (normalized occupancy) worked out at 0.0801.

GGGAAGCA: the binding signal (normalized occupancy) is 0.0776.

As to GGGACACC, the binding signal (normalized occupancy) worked out at 0.068.

Take AGTGCCCA: the binding signal (normalized occupancy) was determined as 0.0691.

Consider TAATGGAA, for which the binding signal (normalized occupancy) came out at 0.0741.

Take AGACGGAG: the binding signal (normalized occupancy) was 0.064.

Regarding ATGGAATG, the binding signal (normalized occupancy) was 0.0796.

For AAAACCCT, the binding signal (normalized occupancy) was 0.0749.

Turning to AGTTAGTG, the binding signal (normalized occupancy) is 0.0707.

Consider AGTTAGCG, for which the binding signal (normalized occupancy) was found to be 0.0747.

Take CTATCGCC: the binding signal (normalized occupancy) was determined as 0.0752.

Turning to CCCTCACA, the binding signal (normalized occupancy) was found to be 0.0772.

On to TAGAAAAA, for which the binding signal (normalized occupancy) came to 0.0751.

Consider CTTTTAGC, for which the binding signal (normalized occupancy) amounted to 0.071.

As for TAGGAACA, the binding signal (normalized occupancy) amounted to 0.076.

Turning to AGCAACCT, the binding signal (normalized occupancy) is 0.0778.

Turning to GGCATAAA, the binding signal (normalized occupancy) was 0.073.

Regarding ACTGGTGC, the binding signal (normalized occupancy) was determined as 0.0749.

Turning to TACGCCTA, the binding signal (normalized occupancy) was found to be 0.0755.

AACACGCT: the binding signal (normalized occupancy) is 0.0974.

Turning to CCCGTGAC, the binding signal (normalized occupancy) is 0.0826.

Consider AAGAGAGC, for which the binding signal (normalized occupancy) stood at 0.0672.

On to ATCACTCC, for which the binding signal (normalized occupancy) was 0.0714.

With GAACTTCA, the binding signal (normalized occupancy) was 0.0701.

Take AAGATGAC: the binding signal (normalized occupancy) was determined as 0.0738.

These data come from publication PMC4242493.
